From PubChem BioAssay AID1347073 (National Center for Advancing Translational Sciences (NCATS), 2019) come the findings set out here.

The campaign covered roughly 45,000 compounds. About 200 (0.44%) were called active. Inconclusive results (about 7%) are left out. The call rests on the fitted dose curve; in most records, active means well fitted activation curve with a large enough effect; inconclusive means small, poorly fitted or top-dose-only effect; inactive means no such curve, though single readings can be large or run the other way. This is one part of the list.

A short description of the test: qHTS of TDP-43 Inhibitors: NCGC Sytravon Library Screen. Further: 0% is about no effect; nearly all actives have a fitted effect of over 55% in size. Conditions: yeast TDP-43 toxicity rescue, BacTiter-Glo growth, 24 h; series mostly up to 46.1 µM; growth rescue (activation): at the top concentration. The procedure, abridged:
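TDP-43-expressing yeast, pregrown in raffinose, seeded at OD600 0.02 in galactose medium with compound for 24 hr at 30 deg C. Growth read by BacTiter-Glo luminescence, so rescue of toxicity appears as activation.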
In general terms: Quantitative high-throughput screening tests each substance at several concentrations.
Take `C=CCn1c(SCC(=O)Nc2nc3ccccc3s2)nc(O)c(CC)c1=O`: the “growth rescue (activation)” value was inactive: -4.91%.
For the compound `Cc1c(CC(=O)NCCCC(=O)O)c(=O)oc2cc3occ(-c4ccccc4)c3cc12`, the “growth rescue (activation)” value was inactive: -14.5%.
With `C=CCNC(=O)c1cc(Cl)ccc1[N+](=O)[O-]`, the “growth rescue (activation)” value was inactive: 21.3%.
With `CC(C)c1ccc(OCC(O)CN2CCN(c3ccc(F)cc3)CC2)cc1` (stereo not drawn) the figure was inactive: 12.1%.
With `Cc1ccc(-c2noc(CN(C)C(=O)c3ccoc3C)n2)cc1` the figure was inactive: 18.2%; with `O=C(Nc1cc(Br)ccc1O)c1cnn2c(C(F)F)cc(C3CC3)nc12`, inactive: 15%; with `COC(=O)N/N=C/c1cc(C)n(-c2ccc(F)cc2)c1C`, inactive: -4.78%.
As for `O=[N+]([O-])c1ccc(N2CCOCC2)c(S(=O)(=O)N2CCOCC2)c1`, the “growth rescue (activation)” value was inactive: -7.31%.
The figure for `CC(C)c1ccc(C(=O)NC(=S)Nc2ccc3[nH]c(=O)[nH]c3c2)cc1` is inactive: 8.17%; for `CCc1cccc2c(C(=O)C(NC(C)CC)c3ccccc3)c[nH]c12` (stereo not drawn) it is inactive: 14.8%.
Regarding `O=C(COC(=O)c1ccc(F)c(S(=O)(=O)N2CCCCC2)c1)NCc1ccc(F)cc1`, the “growth rescue (activation)” value was inactive: 15.5%.
With `CCN(CC)C(=O)CSc1nc(-c2ccccc2)ccc1C#N`, the “growth rescue (activation)” value was inactive: 7.15%.
Take `Cc1ccc(S(=O)(=O)NCC(=O)OCc2nnc(-c3ccccc3)o2)cc1C`: the “growth rescue (activation)” value is inactive: 12.8%.
`CCOC(=O)c1cnc(N2CCN(C(=O)OCC)CC2)[nH]c1=O`: the “growth rescue (activation)” value is inactive: 0.745%.
With `CCCN1C(=O)/C(=C/c2nc3ccccc3c(=O)[nH]2)c2cc(C)ccc21` the figure was inactive: -3.85%.
For `O=C(NC(=S)Nc1ccccn1)c1cccc([N+](=O)[O-])c1`, the “growth rescue (activation)” value was inactive: 13.9%.
On to `Cc1cccc2sc(N(CCCN(C)C)C(=O)COc3ccccc3)nc12`, for which the “growth rescue (activation)” value is inactive: 0.605%.
Regarding `Cc1nc(NC(=O)/C=C/c2ccccc2)sc1C(=O)Nc1cccc(Cl)c1`, the “growth rescue (activation)” value was inactive: 4.07%.
With `COc1cccc(CNC(=O)N2CCN(S(=O)(=O)c3ccc(Cl)cc3)CC2)c1` the figure was inactive: 2.47%; with `CC(C)CC(=O)Nc1ccc(-c2nnn(CC(=O)NCc3ccco3)n2)cc1`, inactive: -7.27%.
As for `Cc1cc(NC(=O)CCC(=O)N(c2ccc(F)cc2)C(C(=O)NC2CCCC2)c2ccncc2)no1` (stereo not drawn), the “growth rescue (activation)” value is inactive: 23.3%.
With `CC(C)CCNC(=O)c1cc([N+](=O)[O-])ccc1N1CCOCC1` the figure was inactive: -19.7%; with `CCc1ccccc1NC(=O)c1cc(-c2cccs2)on1`, inactive: 11.8%; with `COc1ccc(N2CCN(C(C)C(=O)N(C)Cc3ccccc3)CC2)cc1` (stereo not drawn), inactive: -11.8%.
As for `COc1ccc(N2C(=O)CCC(C(=O)N3CCN(c4ccccn4)CC3)C2c2ccc(F)cc2)cc1` (stereo not drawn), the “growth rescue (activation)” value was inactive: -0.397%.
The figure for `CCOc1ccc(C(=O)OC(C)C(=O)N2CCN(Cc3ccccc3)CC2)cc1` (stereo not drawn) is inactive: -2.26%; for `COCc1[nH][nH]c(=O)c1C=Nc1ccc(F)cc1F` it is inactive: 22.1%; for `O=C(NCCCNC(=O)c1cc(Cl)ccc1Cl)c1ccco1` it is inactive: -30%.
For the compound `COc1ccc(CN(CC(=O)NCc2ccccc2)C(=O)CCC(=O)Nc2ccccn2)cc1`, the “growth rescue (activation)” value was inactive: -8.84%.
Turning to `O=C(c1ccc(OC2CCN(Cc3ccccn3)CC2)cc1)N1CCCCCC1`, the “growth rescue (activation)” value was inactive: -2.68%.
As for `CCCCNC(=O)C1(C)CCCCN1C(=O)c1ccc2c(c1)CCO2` (stereo not drawn), the “growth rescue (activation)” value is inactive: 3.67%.
In the case of `CN(C)S(=O)(=O)N1CCCC(C(=O)c2ccc(-c3ccccc3)c(F)c2)C1` (stereo not drawn), the “growth rescue (activation)” value was inactive: 11.1%.
With `COC(=O)c1ccc(NC(=O)C(=O)N2CCN(C(=S)Nc3cccc(C)c3C)CC2)cc1` the figure was inactive: 6.4%; with `CC(C)(C)CC(=O)NCCCN1CCOCC1`, inactive: 8.52%; with `COCCNC(=O)Cn1c(=O)n(CCCCCC(=O)Nc2ccccc2)c(=O)c2sccc21`, inactive: -3.32%.
On to `CCCCOC(=O)c1ccc(NC(=O)C(=O)CC(=O)c2ccc(OC)cc2)cc1`, for which the “growth rescue (activation)” value was inactive: 9.25%.
For `O=C(COC(=O)c1ccc2ncsc2c1)Nc1ncc(Cl)cc1Cl`, the “growth rescue (activation)” value was inactive: 11.1%.
On to `O=C(Nc1ccccc1)NC(Cc1ccc(O)cc1)C(=O)O` (stereo not drawn), for which the “growth rescue (activation)” value is inactive: -7.78%.
Take `O=C(CSc1nnnn1-c1cccnc1)Nc1ccc(F)cc1F`: the “growth rescue (activation)” value is inactive: -8.67%.
Turning to `Cc1cc(C)nc(NS(=O)(=O)c2ccc(NC(=O)C3(c4ccc([N+](=O)[O-])cc4)CCCC3)cc2)n1`, the “growth rescue (activation)” value is inactive: 18.5%.
With `O=[N+]([O-])c1cc(Cl)ccc1N1CCCC1`, the “growth rescue (activation)” value was inactive: -6.56%.
Turning to `Cc1cc(C)cc(-n2c(SCC(=O)NCc3ccc4c(c3)OCO4)nc3ccccc3c2=O)c1`, the “growth rescue (activation)” value is inactive: 22.5%.
With `CCOc1ccc(C(=O)/C=C/Nc2ccc(S(=O)(=O)Nc3cc(C)nc(C)n3)cc2)cc1` the figure was inactive: 8.23%; with `COc1cccc2cc(C(=O)NCC3CCCO3)c(=O)oc12` (stereo not drawn), inactive: 24.3%.
With `CN(C)S(=O)(=O)c1ccc(C(=O)NCCc2ccco2)cc1` the figure was inactive: -23.2%; with `O=C(c1ccccc1[N+](=O)[O-])N1CCN(Cc2ccc3c(c2)OCO3)CC1`, inactive: 16.3%.
In the case of `C=CCNC(=S)NNC(=O)c1csc(C)c1C`, the “growth rescue (activation)” value is inactive: -4.27%.
With `C=CCNc1nc(Nc2ccccc2F)nc(OCC)n1`, the “growth rescue (activation)” value is inactive: 20.1%.
With `N#Cc1ccc(OCC(=O)NC2CCCCCC2)cc1`, the “growth rescue (activation)” value is inactive: 16.9%.
Consider `Cc1onc(-c2ccccc2)c1C(=O)NCCSCc1ccco1`, for which the “growth rescue (activation)” value was inactive: 37.7%.
Consider `NS(=O)(=O)c1ccc(CCNC(=O)CSc2ccc3ccccc3c2)cc1`, for which the “growth rescue (activation)” value is inactive: 2.83%.
As for `Cc1c(NC(=O)c2cnc(Cl)c(Cl)c2)c(=O)n(-c2ccccc2)n1C`, the “growth rescue (activation)” value was inactive: 7.28%.
Consider `CC1(C(=O)N2CCN(c3ccccc3)CC2)CC1(Cl)Cl` (stereo not drawn), for which the “growth rescue (activation)” value is inactive: 36.1%.
Consider `CCNC(=O)COC(=O)c1cc(C)n(-c2ccccc2)c1C`, for which the “growth rescue (activation)” value was inactive: 8.73%.
On to `CC(=O)C1=C(O)C(=O)N(C2CCCCC2)C1c1ccccc1` (stereo not drawn), for which the “growth rescue (activation)” value is inactive: -38.3%.
Take `Cc1cc(C(=O)CSc2nnc(-c3cccnc3)n2-c2ccccc2F)c(C)n1CC1CCCO1` (stereo not drawn): the “growth rescue (activation)” value is inactive: 4.07%.
The figure for `O=C(NC(=O)c1c(F)cccc1F)Nc1ccccc1SC(F)F` is inactive: -7.23%.
`CC(NC(=O)c1ccc(F)cc1Cl)C1CC2CCC1C2` (stereo not drawn): the “growth rescue (activation)” value was inactive: 6.34%.
With `NNC(=O)c1sccc1OCc1cccc(C(F)(F)F)c1`, the “growth rescue (activation)” value is inactive: 12.3%.
For `O=C(O)c1cccc(N2C(=O)c3cc4cccc(Br)c4cc3C2=O)c1`, the “growth rescue (activation)” value was inactive: 8.73%.
Turning to `Cc1ccc(Oc2ccc(NS(=O)(=O)c3cccc(C(=O)O)c3)cc2)cc1`, the “growth rescue (activation)” value is inactive: -4.48%.
The figure for `Cc1ccc(NC(=O)N2C3CCCC2CC(NC(=O)C2CC2)C3)cc1` (stereo not drawn) is inactive: 15.6%; for `CC1CCN(C(=O)COC(=O)CCC(=O)c2ccc(F)cc2)CC1` it is inactive: -2.51%; for `COc1ccc(C(=O)NC2CC2)cc1OC1CCN(Cc2ccccc2O)CC1` it is inactive: 2.7%.
As for `CCN(CC)S(=O)(=O)c1cc(C(=O)OCC(=O)Nc2cccc(C)c2C)ccc1F`, the “growth rescue (activation)” value was inactive: 1.17%.
Consider `COc1ccc(CNCc2ccc(OC)c3ccccc23)cc1`, for which the “growth rescue (activation)” value was inactive: -1.01%.
The figure for `CCCCN(C(=O)CNC(=O)c1cccs1)C(C(=O)NC1CCCC1)c1ccncc1` (stereo not drawn) is inactive: 7.92%.
Turning to `C=CCn1cc(C(=O)N2CCN(CC)CC2)c(=O)c2cc(S(=O)(=O)N(CC)CC)ccc21`, the “growth rescue (activation)” value is inactive: 7.52%.
